Measurements: PubChem BioAssay AID504333 (National Center for Advancing Translational Sciences (NCATS), 2011)
Among all 360,000 compounds or so, about 16,000 (4.4%) were called active. The inconclusive results got no clear call from the source; some entries with a clear call stand among them for comparison. The call rests on the fitted dose curve; in most records, active means well fitted inhibition curve with a large enough effect; inconclusive means small, poorly fitted or top-dose-only effect; inactive means no such curve, though single readings can be large or run the other way. A potency beside an inconclusive call is a rough fit, not a confirmed value.

biological target: Bromodomain adjacent to zinc finger domain protein 2B (Homo sapiens) (UniProt Q9UIF8); assay: qHTS Assay for Inhibitors of BAZ2B; settings: AlphaScreen BAZ2B-H3K14Ac peptide displacement; activity change, negative = inhibition: at 114 µM (top of the series); further: nearly all actives have a fitted effect of over 60% in size
UniProt Q9UIF8, sequence (Q9UIF8 whole entry, looked up, the tested form may be a part): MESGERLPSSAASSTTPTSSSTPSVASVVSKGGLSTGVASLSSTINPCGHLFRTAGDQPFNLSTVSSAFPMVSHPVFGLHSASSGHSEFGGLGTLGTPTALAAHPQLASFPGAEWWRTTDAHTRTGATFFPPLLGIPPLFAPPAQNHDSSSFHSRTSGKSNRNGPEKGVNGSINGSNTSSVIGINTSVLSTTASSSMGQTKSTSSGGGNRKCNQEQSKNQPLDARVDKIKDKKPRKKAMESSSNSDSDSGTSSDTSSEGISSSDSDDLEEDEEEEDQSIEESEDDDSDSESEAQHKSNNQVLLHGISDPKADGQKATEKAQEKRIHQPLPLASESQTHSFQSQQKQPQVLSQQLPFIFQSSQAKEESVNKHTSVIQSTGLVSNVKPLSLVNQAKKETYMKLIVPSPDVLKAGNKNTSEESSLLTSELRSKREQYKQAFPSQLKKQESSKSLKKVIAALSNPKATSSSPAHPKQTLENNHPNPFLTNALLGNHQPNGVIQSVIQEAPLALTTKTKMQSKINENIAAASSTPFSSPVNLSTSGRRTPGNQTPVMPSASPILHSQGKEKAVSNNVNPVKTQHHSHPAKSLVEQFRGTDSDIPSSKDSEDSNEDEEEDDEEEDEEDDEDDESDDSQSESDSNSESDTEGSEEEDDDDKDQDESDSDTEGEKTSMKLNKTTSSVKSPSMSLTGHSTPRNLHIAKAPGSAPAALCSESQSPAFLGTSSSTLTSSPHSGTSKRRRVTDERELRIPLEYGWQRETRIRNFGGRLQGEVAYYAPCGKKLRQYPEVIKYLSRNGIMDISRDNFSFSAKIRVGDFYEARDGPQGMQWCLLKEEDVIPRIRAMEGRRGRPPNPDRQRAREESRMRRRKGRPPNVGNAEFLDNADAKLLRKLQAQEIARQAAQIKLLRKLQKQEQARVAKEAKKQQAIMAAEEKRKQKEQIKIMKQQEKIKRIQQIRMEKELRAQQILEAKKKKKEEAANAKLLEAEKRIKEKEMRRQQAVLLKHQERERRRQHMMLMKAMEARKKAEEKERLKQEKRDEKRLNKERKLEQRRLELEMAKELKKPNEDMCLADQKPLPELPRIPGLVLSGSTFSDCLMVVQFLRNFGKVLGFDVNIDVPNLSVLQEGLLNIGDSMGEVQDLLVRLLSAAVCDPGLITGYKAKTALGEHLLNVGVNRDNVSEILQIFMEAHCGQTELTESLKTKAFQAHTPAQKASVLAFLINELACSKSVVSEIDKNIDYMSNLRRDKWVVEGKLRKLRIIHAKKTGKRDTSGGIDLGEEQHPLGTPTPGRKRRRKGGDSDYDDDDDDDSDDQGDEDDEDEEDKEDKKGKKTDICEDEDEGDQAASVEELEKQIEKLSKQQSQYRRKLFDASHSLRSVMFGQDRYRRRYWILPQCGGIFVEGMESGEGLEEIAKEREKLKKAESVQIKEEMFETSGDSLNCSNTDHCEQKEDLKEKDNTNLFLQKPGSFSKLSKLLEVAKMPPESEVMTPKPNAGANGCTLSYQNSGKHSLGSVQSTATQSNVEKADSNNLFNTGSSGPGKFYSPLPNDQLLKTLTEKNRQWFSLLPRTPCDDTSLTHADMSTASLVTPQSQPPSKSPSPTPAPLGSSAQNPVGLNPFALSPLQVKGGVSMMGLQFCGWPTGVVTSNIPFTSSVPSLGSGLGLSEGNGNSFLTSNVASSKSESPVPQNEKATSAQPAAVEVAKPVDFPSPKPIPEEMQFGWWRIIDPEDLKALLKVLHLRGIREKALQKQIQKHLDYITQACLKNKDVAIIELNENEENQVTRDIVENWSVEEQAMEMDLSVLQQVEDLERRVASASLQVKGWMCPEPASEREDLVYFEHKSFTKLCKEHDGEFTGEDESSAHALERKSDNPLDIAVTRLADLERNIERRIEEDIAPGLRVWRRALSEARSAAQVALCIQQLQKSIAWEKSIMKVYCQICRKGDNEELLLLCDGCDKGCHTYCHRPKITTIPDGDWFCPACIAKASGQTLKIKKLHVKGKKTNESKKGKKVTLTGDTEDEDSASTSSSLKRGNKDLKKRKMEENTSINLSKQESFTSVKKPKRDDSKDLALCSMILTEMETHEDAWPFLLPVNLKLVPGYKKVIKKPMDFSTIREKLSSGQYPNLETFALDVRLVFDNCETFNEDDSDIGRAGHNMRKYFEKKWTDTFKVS
Outline: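 AlphaScreen displacement: compounds (up to 110uM) incubated 30 min at room temperature with a preformed 50 nM BAZ2B/50 nM biotinylated H3K14Ac peptide complex in PBS pH 7.4 with Tween-20. Donor and acceptor beads at 10 ug/mL final added, 20 min light-protected before reading.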
On the % scale 0 is the no-effect control and ±100 the full control effect; potency means the concentration at half of the fitted maximal effect; tags describe the fitted curve by direction and shape.

SMILES	Potency	activity change, negative = inhibition
COc1ccc(CCNC(=O)c2nnn(CC(=O)Nc3ccc(C)cc3C)c2N)cc1OC	active: 79.4 µM	
Cc1cccc(C)c1NC(=O)CSc1nc2[nH]c(=O)cc(O)c2s1	inactive	
Cc1cc(NS(=O)(=O)c2ccc(NC(=O)C(F)(F)F)cc2)nc(C)n1	inconclusive: 89.1 µM [inhibitor, single point]	
NS(=O)(=O)c1ccc(NC(=O)c2cc(Cl)sc2Cl)cc1	inactive	
COc1ccc(CC(=O)NNC(=O)c2ccccn2)cc1	inconclusive: 89.1 µM [inhibitor, single point]	
CC(CCC(=O)O)(c1ccc(O)cc1)c1ccc(O)cc1	inconclusive: 89.1 µM [inhibitor, single point]	
COC(=O)c1ccc(Cl)c(NC(=O)CN2CCC(C)CC2)c1	inconclusive: 100 µM [inhibitor, single point]	
Cc1ccc(-c2nc(C#N)c(NCCCn3ccnc3)o2)cc1	inconclusive: 70.8 µM [inhibitor, partial curve]	
CNc1oc(-c2ccc(F)cc2)nc1S(=O)(=O)c1ccccc1	inactive	
CC(C)(C)c1ccc(CN(Cc2ccco2)c2cnc(S(C)(=O)=O)nc2C(=O)Nc2ccc(F)cc2)cc1	inconclusive: 79.4 µM [inhibitor, single point]	
Cc1ccc(OCCCCNC(C)c2ccccc2)c(C)c1 (centres undefined)	inconclusive: 70.8 µM [inhibitor, single point]	
COc1cc(NC(=O)N2CCC3(CC2)Nc2cc(F)ccc2-n2cccc23)cc(OC)c1OC	inconclusive: 39.8 µM [inhibitor, partial curve]	
COc1cc(C2C(C(=O)c3ccc(C)o3)=C(O)C(=O)N2Cc2ccccc2)ccc1O (centres undefined)	inactive	
COc1ccc(OC)c(C2C(C(=O)N3CCCCC3)=C(C)Nc3nc4ccccc4n32)c1 (centres undefined)	inactive	
COc1ccc(C2CC(c3ccccc3OC(C)=O)=NN2C(C)=O)cc1 (centres undefined)	inactive	
S=C(Nc1ccc(Cl)cc1)Nc1cccc2cnccc12	inactive	
O=C(O)CCCCCNS(=O)(=O)c1ccc2c3c(cccc13)C(=O)N2	inactive	
CCCSc1nc(=S)n(Cc2ccccc2)c(C)c1C(C)=O	inconclusive: 70.8 µM [inhibitor, partial curve]	
O=C1c2ccccc2C(=O)N1CC#CCN1CCN(C2CCCCC2)CC1	inconclusive: 89.1 µM [inhibitor, single point]	
CCn1cc([N+](=O)[O-])c(C(=O)Nc2nc3ccc(OC)cc3s2)n1	inconclusive: 79.4 µM [inhibitor, single point]	
Cc1csc(=Nc2cccnc2)n1CC1CCCCC1	active: 44.7 µM	
CC1CCCC(C)N1/N=C/c1ccc(O)c(O)c1 (centres undefined)	inconclusive: 50.1 µM [inhibitor, partial curve]	
COc1ccc(/C(O)=C2/C(=O)C(=O)N(c3ccccn3)C2c2ccc(F)cc2)cc1 (centres undefined)	inactive	
COC(=O)c1cc(=O)n(-c2ccc(F)cc2)c(=Nc2ccc(F)cc2)s1	inconclusive: 28.2 µM [inhibitor, full curve]	
Cc1cc(Cl)c(S(=O)(=O)N/N=C/c2ccc3c(c2)OCO3)c(Cl)c1	inconclusive: 89.1 µM [inhibitor, single point]	

SMILES	Potency	activity change, negative = inhibition
Nc1ccc2c(c1)Nc1ccccc1CC2	active: 28.2 µM	
COC(=O)/C=C/c1ccccc1S(=O)(=O)N(Cc1ccccc1)Cc1ccco1	active: 50.1 µM	
O=C(NN1C(=O)/C(=C/C=C/c2ccco2)SC1=S)c1ccncc1	active: 5.62 µM	
O=C(O)c1cccc(NC(=S)N/N=C/c2ccccn2)c1	active: 3.55 µM	
COc1cc(CN2CCN(C(O)(c3ccccc3)c3ccccc3)CC2)cc(OC)c1OC	inconclusive: 89.1 µM [inhibitor, single point]	
O=C1c2ccc(Cl)cc2S(=O)(=O)c2cccc(C(=O)N3CCC(Cc4ccccc4)CC3)c21	inconclusive: 14.1 µM [inhibitor, partial curve]	
COc1ccc(-n2c(=O)c3c(c4cc(OC)ccc4n3C)n(Cc3ccc(F)cc3Cl)c2=O)cc1	inactive	
Cn1c(CNC(=O)c2ccc(Cl)cc2)nnc1SCC(=O)NC1=NCCS1	inconclusive: 89.1 µM [inhibitor, single point]	
COc1ccc(-c2ccc(=O)n(Cc3cccc([N+](=O)[O-])c3)n2)cc1	inconclusive: 28.2 µM [inhibitor, full curve]	
C=CCOc1ccc(C(=O)Nc2ccc3c(c2)n(C)c(=O)n3C)cc1		inconclusive: -67.8% [inhibitor]
COc1ccccc1C1/C(=C(\O)c2ccc3c(c2)OCCO3)C(=O)C(=O)N1CCCn1ccnc1 (centres undefined)	inconclusive: 25.1 µM [inhibitor, single point]	
O=C(Nc1cnc(N2CCC(N3CCCCC3)CC2)c(C(=O)O)c1)c1ccc(Br)cc1	inconclusive: 79.4 µM [inhibitor, single point]	
CC(C)Oc1ccc(/C(O)=C2/C(=O)C(=O)N(CCCn3ccnc3)C2c2cccnc2)cc1 (centres undefined)	inactive	
Cc1n[nH]c(=S)c2nn(-c3cccc(Cl)c3)c(C)c12	inactive	
O=C(Nc1ccccc1)c1nc2ccccc2s1	inactive	
O=C(/C=C/c1ccccc1[N+](=O)[O-])N1CCc2ccccc2C1	inconclusive: 56.2 µM [inhibitor, partial curve]	
Cn1c(=O)n(C)c2cc(C(N)=O)ccc21	inconclusive: 89.1 µM [inhibitor, single point]	
Cc1ncc([N+](=O)[O-])n1S(=O)(=O)c1cc(Br)ccc1Br	inconclusive: 89.1 µM [inhibitor, single point]	
Cc1ccc(C2CC(c3ccccc3)=NN2C(=S)Nc2ccccc2)o1 (centres undefined)	inactive	
Cc1cc(C)cc(NC(=O)COC(=O)CC2CCCC2)c1	inactive	
COC(=O)C1=C(C)N(c2ccc(Br)cc2)C(=O)/C1=C\c1ccco1	inconclusive: 79.4 µM [inhibitor, single point]	
CC(=O)C1=C(C)NC(C)=C(C(C)=O)C1c1ccc(-c2ccccc2Cl)o1	inactive	
O=C1CC(/C=C/c2ccco2)=Nc2ccccc2N1	inactive	
c1ccc2c(c1)NCCS2	active: 50.1 µM	
CCN(CC)C(=O)CC(c1ccc(N(C)C)cc1)c1c(O)cc(OC)cc1OC (centres undefined)	inconclusive: 50.1 µM [inhibitor, partial curve]	

SMILES	Potency	activity change, negative = inhibition
O=C(COc1nsnc1N1CCOCC1)Nc1cccc(Cl)c1	inconclusive: 35.5 µM [inhibitor, partial curve]	
O=C(NCCCn1ccnc1)Nc1ccc(Cl)cc1Cl	inconclusive: 89.1 µM [inhibitor, single point]	
CCOC(=O)c1cc(=O)[nH]c2ccccc12	inactive	
O=C(CCCCCNC(=O)c1ccccc1)N/N=C/c1ccco1	inconclusive: 89.1 µM [inhibitor, single point]	
Cc1ccc(N2C(=O)[C@@H]3[C@H](C2=O)[C@H]2C=CC=NN2[C@@H]3C(=O)Nc2ccc(Cl)cc2)cc1	active: 50.1 µM	
Cc1occc1C(=O)N1CCN(Cc2ccccc2)CC1	inconclusive: 89.1 µM [inhibitor, single point]	
COc1ccc(/C(C)=N/Nc2nc(C)c(C(C)=O)s2)cc1	inconclusive: 50.1 µM [inhibitor, partial curve]	
CCc1ccccc1N(CC(=O)O)S(C)(=O)=O	inconclusive: 100 µM [inhibitor, single point]	
Cc1ccoc1C(=O)NCCNc1ccc(Cl)cc1[N+](=O)[O-]	active: 44.7 µM	
C#CCOCCOCCOCCNc1nc(N2CCN(C(=O)Cn3cc(CCCCN)nn3)CC2)nc(N2CCN(C(=O)Cn3cc(CC(C)O)nn3)CC2)n1 (centres undefined)	inconclusive: 89.1 µM [inhibitor, single point]	
Cc1ccccc1CSc1nnc(-c2ccccn2)n1N	active: 28.2 µM	
O=C(O)c1cc(-c2ccc(/C=C3/SC(=S)N(Cc4ccccc4)C3=O)o2)ccc1Cl	inconclusive: 39.8 µM [inhibitor, partial curve, poor fit]	
CCn1c(SCC(=O)Nc2oc(-c3ccccc3)c(-c3ccccc3)c2C#N)nnc1-c1ccncc1	inconclusive: 35.5 µM [inhibitor, partial curve]	
COc1cc(CN(C(=O)c2cccc(C)c2)c2ccccn2)cc(OC)c1OC	inactive	
COc1ccc(NS(=O)(=O)c2ccc3c(c2)CCO3)cc1	inactive	
Fc1ccc(-c2cc(C(F)(F)F)nc(N3CCCCC3)n2)cc1	inactive	
OCCN1CCN(c2ncnc3c2c(-c2ccccc2)cn3-c2ccc(F)cc2)CC1	inconclusive: 44.7 µM [inhibitor, partial curve]	
COc1ccc(Br)cc1/C=N/N1C(=O)CSC1=S	inconclusive: 56.2 µM [inhibitor, partial curve]	
CCN(CC)c1ccc(NC(=O)c2cc(Cl)ccc2OC)cc1	inconclusive: 39.8 µM [inhibitor, single point]	
Oc1ccc(CN2CCCCC2)c2cccnc12	active: 3.16 µM	
C=CCn1c2ccccc2c2nnc(SCc3[nH]c(=O)[nH]c3C(=O)CCCCC(=O)OCC)nc21	active: 79.4 µM	
Cc1cc(-c2ccccc2)c2c3c(c(-c4ccccc4)n2n1)c(=O)n(C)c(=O)n3C	inconclusive: 100 µM [inhibitor, single point]	
O=[N+]([O-])c1ccc(-c2cn(-c3ccccc3F)c(=S)[nH]2)cc1	inconclusive: 89.1 µM [inhibitor, single point]	
CCOC(=O)C(Cc1ccccc1)c1ccnc2nc(N)nn12 (centres undefined)	inconclusive: 89.1 µM [inhibitor, single point]	
